From paper PMC4336329 (PLoS ONE, 2015)
Among all 310,000 compounds or so, about 14,000 (4.5%) showed an effect of 50% or more. The effect is printed as a negative number. This is one part of the list.

Molecular target: human ether-à-go-go-related gene (hERG) potassium channel (human, UniProt Q12809)
Experiment: primary screen, population patch clamp on CHO cells stably expressing hERG
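Note: peak tail current of the secondary pulse compared with the same well before compound.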

Chain of human ether-à-go-go-related gene (hERG) potassium channel (Q12809 whole entry, looked up): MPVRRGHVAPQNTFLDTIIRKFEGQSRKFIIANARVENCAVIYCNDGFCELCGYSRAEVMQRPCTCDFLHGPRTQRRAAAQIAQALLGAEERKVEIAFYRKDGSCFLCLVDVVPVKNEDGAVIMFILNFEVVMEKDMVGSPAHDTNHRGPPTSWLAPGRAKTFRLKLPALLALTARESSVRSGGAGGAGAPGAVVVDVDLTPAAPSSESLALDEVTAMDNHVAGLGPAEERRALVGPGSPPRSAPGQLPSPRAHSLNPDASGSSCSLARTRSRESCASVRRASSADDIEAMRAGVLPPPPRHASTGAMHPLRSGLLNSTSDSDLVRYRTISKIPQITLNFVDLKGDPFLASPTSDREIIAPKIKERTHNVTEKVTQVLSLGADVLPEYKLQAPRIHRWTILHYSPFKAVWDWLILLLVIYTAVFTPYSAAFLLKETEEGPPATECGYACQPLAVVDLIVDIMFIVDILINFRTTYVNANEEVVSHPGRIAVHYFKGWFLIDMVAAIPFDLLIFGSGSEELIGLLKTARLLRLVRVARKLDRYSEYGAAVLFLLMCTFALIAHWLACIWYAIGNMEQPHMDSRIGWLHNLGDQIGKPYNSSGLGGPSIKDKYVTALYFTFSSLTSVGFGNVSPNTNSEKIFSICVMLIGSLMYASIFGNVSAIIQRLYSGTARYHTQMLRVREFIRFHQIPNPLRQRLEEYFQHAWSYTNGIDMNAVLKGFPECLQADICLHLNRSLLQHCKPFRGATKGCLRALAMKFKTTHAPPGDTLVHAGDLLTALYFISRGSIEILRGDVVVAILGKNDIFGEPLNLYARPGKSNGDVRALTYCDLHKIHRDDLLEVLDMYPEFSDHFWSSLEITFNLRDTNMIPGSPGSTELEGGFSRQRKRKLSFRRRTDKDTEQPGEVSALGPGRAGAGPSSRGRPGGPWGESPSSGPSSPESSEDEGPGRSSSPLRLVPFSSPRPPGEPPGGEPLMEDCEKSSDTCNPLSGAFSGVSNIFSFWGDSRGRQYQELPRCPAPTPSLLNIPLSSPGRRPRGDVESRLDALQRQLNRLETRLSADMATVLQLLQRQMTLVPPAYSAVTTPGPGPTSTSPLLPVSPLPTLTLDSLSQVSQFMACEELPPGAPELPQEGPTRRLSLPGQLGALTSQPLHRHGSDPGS

| Compound | hERG current change (%, negative = inhibition) at 10uM [%] |
| --- | --- |
| O=[N+]([O-])c1ccc(Cl)c(S(=O)(=O)NCC2CCCO2)c1 (stereo not shown) | -4.06 |
| CNS(=O)(=O)c1cc(S(=O)(=O)NC)c2cccc3c2c1NC3=O | 17.1 |
| CCCCn1c(N)c(N(CCOC)C(=O)c2cc3c(s2)CCCCC3)c(=O)[nH]c1=O | 10.2 |
| Cc1cc(C)nc(NCCO)n1.Cl | 13 |
| CCNc1nc(NCC)nc(OCCNS(=O)(=O)c2cc(C)ccc2C)n1 | -16.2 |
| COc1ccc(-c2cc(C(F)F)n3ncc(C(=O)N4CCN(C(=O)c5ccco5)CC4)c3n2)cc1 | -34.8 |
| COc1cccc(/C=C2\SC(=S)N(CCC(=O)Nc3ccc(O)cc3)C2=O)c1 | -0.539 |
| CN(CC1CCCO1)S(=O)(=O)c1ccc(C(=O)Nc2nc(-c3ccccn3)cs2)cc1 (stereo not shown) | -23.3 |
| CCc1ccc(NC(=O)C2=CC(c3ccc(OC)c(OC)c3)=NS(=O)(=O)N2C)cc1 | -8.98 |
| CCCOc1ccc(C2NC(=O)NC2=O)cc1 (stereo not shown) | 11.8 |
| CSCCC(=O)N1CCCC(N2CCN(c3cccc(C(F)(F)F)c3)CC2)C1 (stereo not shown) | -40.4 |
| CCCCCCCCCCOC(=O)Cn1c(COc2cccc(C)c2)[n+](C)c2ccccc21.[Cl-] | -76 |
| O=C(c1ccc(Cl)cc1)N1CCC(O)(CSc2ccc(Cl)cc2)CC1 | -44.4 |
| COc1c(S(=O)(=O)N2CCN(C(=O)c3ccco3)CC2)ccc(Cl)c1Cl | -23.1 |
| Nc1ncncc1-c1ccc([N+](=O)[O-])cc1 | -9.28 |
| Cc1ccc2[nH]c(=O)c(CN(C(=O)c3cccs3)c3ccccc3)cc2c1 | 13.8 |
| CCOc1ccc(NC(=O)CCc2nnc3ccc(N4CCC(C)CC4)nn23)cc1 | -27 |
| O=S(=O)(c1ccc(Cl)cc1)N1CCN=C1SCc1ccc(Cl)c(Cl)c1 | 8.78 |
| Cc1ccc(CC(=O)Nc2nc3ccccc3[nH]2)cc1C | -9.9 |
| CCC1CCCCN1CCCNC(=O)c1ccc2c(c1)NC(=O)CN2C (stereo not shown) | 19.4 |
| O=C(CSc1nccc(=O)[nH]1)c1ccco1 | -1.66 |
| COc1ccc(Cl)cc1C(=O)NCCS(=O)(=O)N1CCN(c2ccccc2F)CC1 | -42.7 |

| Compound | hERG current change (%, negative = inhibition) at 10uM [%] |
| --- | --- |
| CC(NC(=O)c1ccc(NC(=O)CC2SC(N3CCCC3)=NC2=O)cc1)c1ccc(F)cc1 (stereo not shown) | 13.8 |
| FC(F)(F)COc1nc(N/N=C/c2cccnc2)nc(N2CCCCC2c2ccccn2)n1 (stereo not shown) | -60.8 |
| COc1ccccc1N(C(=O)CCl)c1cn(C(C)=O)c2ccccc12 | -10.6 |
| COC(=O)C(O)(NC(=O)c1ccncc1)C(F)(F)F (stereo not shown) | 22 |
| CCOC(=O)N1CCC(N2Cc3cccc(C(=O)Nc4cc(F)ccc4F)c3C2=O)CC1 | -23.1 |
| O=C(CSc1ccc(Cl)cc1)N/N=C/c1cccnc1 | -40.3 |
| Cc1ccccc1C(=O)Oc1cc(N)n(S(C)(=O)=O)n1 | 11.3 |
| COc1ccc(C)cc1NC(=O)c1ccccc1NS(=O)(=O)c1cccc2cccnc12 | 12.6 |
| Cc1cc(NC(=O)CSc2nnc(C(C)N(C)C)n2-c2ccc(F)cc2)no1 (stereo not shown) | 31.1 |
| C/C(Cl)=C/CSc1nc2c(c(=O)[nH]c(=O)n2C)n1C(C)C | -12 |
| Cc1nnc(NC(=O)c2c(-c3ccccc3)noc2C)s1 | 19.9 |
| O=c1c2sc3nc(N4CCOCC4)c4c(c3c2ncn1CCc1ccccc1)CCCC4 | -8.42 |
| COc1ccc(CCNC(=O)COc2cc(O)c3c(c2)OC(C)(C)CC3=O)cc1OC | -16.7 |
| COc1ccc(OCC(=O)Nc2ccc(C)c(S(=O)(=O)N(C)C)c2)cc1 | -3.39 |
| COC(=O)c1c(C)[nH]c(C=Nc2ccc(OC)cc2)c1C | -4.74 |
| CCOC(=O)c1cc(-c2ccccc2)sc1NC(=S)Nc1cccc(C)n1 | 10.9 |
| CCCCn1c(N)c(N(CC)C(=O)c2cc(C)cc(C)c2)c(=O)[nH]c1=O | 27.9 |
| CC(=O)Nc1ccc(NC(=O)CSc2nc3[nH]ncc3c(=O)n2-c2ccccc2)cc1 | 32.8 |
| CCN(CC)CCCNC(=O)CNC(=S)N(CCCN1CCOCC1)Cc1cccs1 | 4.78 |
| COc1ccc2[nH]c3c(=O)n(CCCCC(=O)N4CCC(C(N)=O)CC4)c(=S)[nH]c3c2c1 | 16.5 |
| O=C(/C=C/c1ccccc1)Nc1cc(C(=O)O)cc(C(=O)O)c1 | 9.48 |
